Out of some 52,000 compounds screened, about 1,700 (3.3%) were called active. Rule as the data show it: active = survival mostly below about 52% (no sharp cut-off); inactive = mostly above about 56%. This is one part of the list.

The test system of the experiment is Wild type. The experiment is described as follows: growth inhibition of S. aureus wild type versus tarO mutant, primary screen, teichoic acid synthesis inhibitors, RN4220, OD600 (AID 463173). The conditions noted are these: S. aureus RN4220 wild type/DeltatarO growth, OD600, 18 h, stronger effect = lower value, screened at 18.75 µg/mL (by protocol).
Take `CCC(=O)N1c2ccc(S(=O)(=O)CCC(=O)NCc3ccc(OC)cc3)cc2CC1C` (stereo unspecified): the survival was inactive: 120%.
As for `CCOC(=O)C1CCN(C(=O)c2ccc(C)c(NC(=O)c3nsc4ccccc34)c2)CC1`, the survival is inactive: 75%.
`Cc1cc(C)c(NC(=O)CCN2CCCCC2)c(C)c1`: the survival was inactive: 92%.
Turning to `OCCN(CCO)CC(O)Cn1c2ccc(Br)cc2c2cc(Br)ccc21` (stereo unspecified), the survival is inactive: 74%.
For the compound `O=C(Cn1c(=O)c2ccccc2n(CC(=O)Nc2ccccc2F)c1=O)NCCc1ccccc1`, the survival is inactive: 89%.
The same measure for `CCc1cccc(C)c1Nc1c(-c2cccs2)nc2ncccn12`: inactive: 71%; for `O=S(=O)(Nc1ccc(OC(F)(F)F)cc1)c1ccc(N2CCCCS2(=O)=O)cc1`: inactive: 68%.
`Cc1cc(C)c(S(=O)(=O)NCC(c2ccco2)S(=O)(=O)c2ccccc2)c(C)c1` (stereo unspecified): the survival was inactive: 124%.
With `COc1ccc(NC(=O)COCc2cc(-c3ccco3)on2)cc1Cl`, the survival is inactive: 118%.
Take `O=C(Nc1ccc(F)c(F)c1)c1ccc(=O)n(Cc2ccc(F)cc2)c1`: the survival is inactive: 121%.
Regarding `CC(C)c1ccc(S(=O)(=O)NCc2nc3cccnc3n2Cc2ccc(F)cc2)cc1`, the survival was inactive: 78%.
Regarding `CC1=C(C(=O)Nc2cc(C)cc(C)c2)C2(CCCCC2)OC1=O`, the survival is inactive: 86%.
The same measure for `Cn1cnnc1SCCOc1ccc(Cl)cc1`: inactive: 111%.
In the case of `COc1ccc(N2CCN(C(=O)CSc3nnc4c(C)cc5cc6c(cc5n34)OCCO6)CC2)cc1`, the survival was inactive: 104%.
With `Cc1nc2nc(CNC(=O)OC(C)(C)C)nn2c(C)c1CCC(=O)NCc1ccccc1Cl`, the survival was inactive: 82%.
The same measure for `COc1ccc(CCNC(=O)CCc2c(C)c3ccc(O)c(C)c3oc2=O)cc1`: inactive: 114%; for `CCc1ccc(-n2c(=O)c3sc4ccccc4c3n(CC(=O)NC3CCCC3)c2=O)cc1`: inactive: 82%; for `COc1cc(OC)c(NC(=O)CCc2nc(C3=CCN(Cc4cccc(Cl)c4)CC3)no2)cc1Cl`: inactive: 84%.
Take `CCOC(=O)c1[nH]c2ccccc2c1N=CN(C)C`: the survival is inactive: 104%.
For the compound `Nc1nc(N)c(S(=O)(=O)c2ccccc2)c(Nc2ccccc2)n1`, the survival was inactive: 72%.
Take `COc1cccc(C2C(=O)N(C3CCCCC3)CC(=O)N2CCc2ccc(OC)c(OC)c2)c1` (stereo unspecified): the survival is inactive: 63%.
As to `O=C1C2C3C=CC(C3)C2C(=O)N1CCCCN1C(=O)C2C3C=CC(C3)C2C1=O` (stereo unspecified), the survival was inactive: 101%.
With `CCN1CCN(C(C)C(=O)Nc2ncc(C)s2)CC1` (stereo unspecified), the survival was inactive: 98%.
Regarding `CCc1ccc2c(c1)c(=O)c(S(=O)(=O)c1ccc(F)cc1)cn2CC(=O)Nc1ccccc1OC`, the survival is inactive: 87%.
With `Cc1ccc(NC(=O)c2oc3ccccc3c2NC(=O)C2CCCCC2)cc1`, the survival was active: 4%.
For the compound `COc1ccc(-c2cc(C(=O)Oc3ccc(Br)cc3)c3ccccc3n2)cc1`, the survival was inactive: 63%.
For `CC1(C)CC2=NNC(c3ccccc3)C2CO1` (stereo unspecified), the survival was inactive: 107%.
For `CCOC(=O)C1=C(CN(CC)Cc2ccccc2)NC(=O)NC1c1ccc(OC)cc1` (stereo unspecified), the survival is inactive: 65%.
With `COC(=O)c1c(-c2ccc(Cl)cc2)noc1N1CCN(c2ccccc2F)CC1`, the survival is inactive: 75%.
The same measure for `CCCCNC(=O)c1ccc2c(c1)NC(=O)C(C(C)C)N2` (stereo unspecified): inactive: 127%; for `COc1ccc2c(c1)c1c(c(=O)n(-c3ccc(F)c(Cl)c3)c(=O)n1Cc1ccccc1F)n2C`: inactive: 78%.
Under `COc1ccccc1NC(=O)C(=O)c1cc(C)n(-c2cc(C)cc(C)c2)c1C` stands inactive: 115%.
On to `N#Cc1c(-n2ncnc2-c2cccc(Cl)c2)sc2c1CCCCC2`, for which the survival is inactive: 58%.
On to `CCOc1cccc(-c2nc3ccccc3c(=O)o2)c1`, for which the survival is inactive: 62%.
As to `COc1cccc(C(=O)Nc2nc(-c3nnn(-c4cc(C)ccc4C)c3C)ns2)c1`, the survival was inactive: 72%.
Regarding `COc1ccc(Cl)cc1NC(=O)C(=O)NCc1ccc(Cl)cc1`, the survival was inactive: 145%.
In the case of `O=C1CC(c2ccccc2)Cc2[nH]c(=O)c(-c3nc(-c4ccc(Cl)c(Cl)c4)cs3)cc21` (stereo unspecified), the survival was inactive: 69%.
For `CC(C)CC(O)(CC(C)C)C(=O)NNc1ccccc1`, the survival is inactive: 110%.
Under `Cc1cc(C)c2oc(C(=O)NCCc3ccc(S(N)(=O)=O)cc3)cc(=O)c2c1` stands inactive: 92%; under `CC(C)(C)c1ccc(C(=O)NC2=NC(c3cccc(F)c3)CC(=O)N2)cc1` (stereo unspecified), inactive: 65%.
With `COCCNS(=O)(=O)c1cc(-c2nn3c(C)nnc3c3ccccc23)ccc1C`, the survival is inactive: 77%.
With `Cc1ccc(NC(=O)N2CCN(C(=O)c3nsc4ccccc34)CC2)cc1C`, the survival is active: -6%.
As for `CCS(=O)(=O)NCCc1sc2nc(-c3ccc(OC)cc3)nn2c1C`, the survival is inactive: 71%.
Turning to `CCOC(=O)Cc1nn(CC)c(=O)c2ccccc12`, the survival is inactive: 115%.
Regarding `O=C(CNS(=O)(=O)c1ccc(Br)s1)N1CCN(c2ccc(F)cc2)CC1`, the survival was inactive: 67%.
Regarding `COc1cccc(NC(=O)CN2C=NS(=O)(=O)c3ccccc32)c1`, the survival was inactive: 127%.
As for `Cc1ccc(C(=O)c2sc(Nc3ccc(F)cc3)c(C#N)c2N)cc1`, the survival was inactive: 108%.
With `COc1cccc(-c2nc3c(c(SCC(=O)Nc4cccc(C)c4C)n2)Cc2c(CO)cnc(C)c2O3)c1`, the survival was inactive: 113%.
In the case of `Cc1cccc(CCn2c(=O)c3ccccc3n(Cc3ccccc3C)c2=O)c1`, the survival was inactive: 59%.
For the compound `Cc1cccn2c(=O)cc(COc3ccc(NC(=O)COc4ccc(F)cc4)cc3)nc12`, the survival was inactive: 69%.
The same measure for `COc1ccc2c(c1)c1c(c(=O)n(Cc3ccccc3)c(=O)n1CC(=O)Nc1ccccc1F)n2C`: inactive: 129%; for `CCOc1ccccc1NC(=O)N1CC(C)Oc2ccc(Cl)cc21` (stereo unspecified): inactive: 99%; for `CCOC(=O)c1cnc(NCc2ccc(OC)cc2OC)c2ccccc12`: inactive: 117%.
With `Cc1ccc(OC(=O)CSc2nnc(-c3ccc4c(c3)OCO4)o2)c(C)c1`, the survival was inactive: 83%.
Take `COc1ccc(-c2nc3sc(CCNC(=O)C(C)(C)C)c(C)n3n2)cc1`: the survival was inactive: 80%.
With `NC(=O)c1cc(N)ccc1N1CCCC1`, the survival was inactive: 104%.
For `CCOCCCNC(=O)c1ccc(-c2nc(CS(=O)(=O)c3ccccc3)c(C)o2)cc1`, the survival is inactive: 87%.
As to `CNC(=O)C1CCCN(c2nnc(C)c3c(C)n(-c4ccccc4)nc23)C1` (stereo unspecified), the survival was inactive: 72%.
For `CC1CCC2(CC1)Nc1ccccc1S2` (stereo unspecified), the survival is inactive: 110%.
Take `O=C(O)CCc1ccc(-c2ccc(Br)cc2)n1-c1ccccc1O`: the survival was inactive: 50%.
In the case of `CCOC(=O)C1CCN(c2cc3c(cc2NC(=O)c2ccccc2Cl)n(C)c(=O)n3C)CC1`, the survival is inactive: 82%.
`CCOc1ccc(N2CC(c3nc4ccccc4n3CCOc3ccc(OC)cc3)CC2=O)cc1` (stereo unspecified): the survival is inactive: 75%.
Regarding `CC(C)Cc1nn2cc(-c3cccc(Br)c3)nc2s1`, the survival was inactive: 115%.
The same measure for `CCOc1ccc2nc(N3CCCC(C(=O)NCCc4ccc(OC)cc4OC)C3)sc2c1` (stereo unspecified): inactive: 71%; for `CCCCN(CC)CCNC(=O)Cn1cnc2sc(C)c(S(=O)(=O)N3CCN(c4ccccc4OC)CC3)c2c1=O`: inactive: 75%.
Regarding `CCOc1cccc2sc(N(Cc3cccnc3)C(C)=O)nc12`, the survival was inactive: 80%.
Regarding `O=C(Nc1ccc(F)c(Cl)c1)c1cc(S(=O)(=O)NCc2ccc3c(c2)OCO3)ccc1F`, the survival is inactive: 124%.
Under `Cc1cc2nc(-c3ccc(NC(=O)c4ccc(OCC(C)C)cc4)cc3)oc2cc1C` stands inactive: 78%.
Regarding `O=C(NCCc1ccccc1)c1ccc(CSc2nc3cccnc3n2Cc2ccccc2)cc1`, the survival was inactive: 75%.
Consider `CC(NC(=O)CCc1cn(Cc2ccccc2Cl)c2ccccc12)c1ccccc1` (stereo unspecified), for which the survival is inactive: 89%.
In the case of `CC(C)CN(c1ccccc1)S(=O)(=O)c1nnc(NC(=O)C2CCCCC2)s1`, the survival was inactive: 91%.
Under `O=C(NCCO)C(=O)NCC(c1ccc2c(c1)OCO2)N1CCOCC1` (stereo unspecified) stands inactive: 59%; under `COc1ccc(/C=C/c2nc(C#N)c(N3CCC(C(N)=O)CC3)o2)cc1OC`, inactive: 125%.
Consider `Cc1c(NC(=O)Nc2cccc(C(F)(F)F)c2)sc2nc3n(c(=O)c12)CCC(C)CC3` (stereo unspecified), for which the survival was inactive: 101%.
Take `Cc1ccc(-c2nc(CS(=O)(=O)CC(=O)NC(C)CCc3ccccc3)c(C)o2)cc1` (stereo unspecified): the survival is inactive: 41%.
Under `CCc1ccccc1NC(=O)Cn1nnc(C(=O)NCc2ccco2)c1N` stands inactive: 88%; under `CCOC(=O)c1nnc2c(-c3ccc(Cl)cc3)c(C)nn2c1N`, inactive: 76%.
Consider `O=C(CCS(=O)(=O)c1ccccc1)N(Cc1cccnc1)c1nc2c(F)cccc2s1`, for which the survival was inactive: 84%.
As for `COc1ccc(C(CC(=O)Nc2ccccn2)N2Cc3ccccc3C2=O)cc1OC` (stereo unspecified), the survival is inactive: 74%.
Regarding `CC(=O)Nc1ccc(NC(=O)c2csnn2)cc1`, the survival is inactive: 68%.
In the case of `CS(=O)(=O)N(CCc1ccccc1)CC(=O)N1CCCC1`, the survival is inactive: 106%.
As for `O=C(NCc1ccc(Cl)cc1)C(=O)NCC(c1ccc2c(c1)OCO2)N1CCOCC1` (stereo unspecified), the survival is inactive: 88%.
The same measure for `COc1cc2ccccc2cc1C(=O)N1CCN(c2nc3c(F)cccc3s2)CC1`: inactive: 76%; for `COCCN1C(=O)N(c2cccc(OC)c2)C(=O)C1CC(=O)Nc1ccccc1` (stereo unspecified): inactive: 132%; for `CCCCc1nn2c(=O)cc(COC(=O)c3cccc(NC(=O)c4cccs4)c3)nc2s1`: inactive: 83%.
In the case of `COc1cc(C(=O)NCCOc2ccc(C)c(C)c2)cc(OC)c1OC`, the survival is inactive: 116%.
The same measure for `CN1C(=O)Cc2cc(S(=O)(=O)CCC(=O)Nc3ccc(Cl)cc3)ccc21`: inactive: 78%; for `COc1ccc(CCNC(=O)c2cnn(-c3cccc(C)c3)c2C2CCNCC2)cc1OC`: inactive: 91%.
Regarding `CC(=O)c1ccc(NC(=O)c2cc3c([nH]c2=O)CC(c2ccccc2)CC3=O)cc1` (stereo unspecified), the survival was inactive: 85%.
The same measure for `CCOc1ccc2c(c1)c(=O)c(C(=O)c1ccccc1)cn2Cc1ccccc1F`: inactive: 80%; for `O=C(c1ccccc1)N1CCC(c2nc3ccccc3o2)CC1`: inactive: 108%.

Values taken from PubChem BioAssay AID463173 (ICCB-Longwood Screening Facility, Harvard Medical School, 2010).
